Data from the supplement of paper PMC9334596.
Where “and” joins values, the source holds several entries; their conditions need not be identical. Identical values can stand only once. The full ranking holds about 5,300 compounds; the median of “PER2::LUC luminescence relative to vehicle control” is about 0.96, and the highest 2% start at about 1.3. The list shows a part of the results.

System: mPer2Luc MEF
Assay: PER2::LUC luminescence relative to vehicle control (fold of vehicle); higher = higher PER2::LUC reporter signal
Settings: 10 µM
Procedure, shortened: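 Compounds from commercial libraries were added at 10 μM to 384-well plates seeded 48 h earlier with ~3000 mPer2Luc mouse embryonic fibroblasts per well. The cells were kept in DMEM with 10% FBS at 37 °C and 5% CO2. Luminescence was read with ONE-Glo 24 h and 30 h after treatment, then an alamarBlue viability assay was run. Values are PER2::LUC luminescence relative to vehicle control, as fold change.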

| Compound | PER2::LUC luminescence (time after treatment 24 h) | PER2::LUC luminescence (time after treatment 30 h) |
| --- | --- | --- |
| C[C@H]1COC2(CCN(c3nc(=O)c4cc(C(F)(F)F)cc([N+](=O)[O-])c4s3)CC2)O1 (racemic) | 1.32 | 1.39 |
| Nc1ccccc1NC(=O)CCCCCC(=O)Nc1ccccc1 | 0.675 | 0.932 |
| Nc1ccncc1N | 1.02 | 0.965 |
| C[C@@H]1O[C@@H](OC[C@H]2O[C@@H](Oc3cc(O)c4c(c3)O[C@H](c3ccc(O)c(O)c3)CC4=O)[C@H](O)[C@@H](O)[C@@H]2O)[C@H](O)[C@H](O)[C@H]1O | 1.05 | 1 |
| COc1ccc(-c2coc3cc(O)ccc3c2=O)c(O)c1O | 0.977 | 0.904 |
| CCCCCC(=O)Cc1cc(O)cc(O)c1C(=O)Oc1cc(CC(=O)CCCCC)c(C(=O)O)c(OC)c1 | 1.23 | 1.25 |
| O=C(O)c1ccc(-n2nc(-c3ccccc3O)nc2-c2ccccc2O)cc1 | 0.931 and 0.944 | 0.756 and 0.741 |
| COc1c(C)c2c(c(O)c1C/C=C(\C)CCC(=O)OCCN1CCOCC1)C(=O)OC2 | 0.726 | 1.07 |
| CN1C(C(=O)Nc2ccccn2)=C(O)c2ccccc2S1(=O)=O | 0.849 | 1.03 |
| NCCS | 1.16 and 1 | 1.18 and 1.2 |
| COCCOC(=O)C1=C(C)NC(C)=C(C(=O)OC(C)C)C1c1cccc([N+](=O)[O-])c1 (stereo unspecified) | 1.13 | 1.17 |
| O=C(NCc1cccc(O)c1)Nc1nc(-c2ccncc2)cs1 | 0.573 | 0.624 |
| COc1cc(C(=O)NC2CCN(C)CC2)ccc1Nc1ncc2c(n1)N(C1CCCC1)CC(F)(F)C(=O)N2C | 0.049 | 0.053 |
| COC(=O)CCc1ccc(OCC(O)CNC(C)C)cc1 (stereo unspecified) | 0.46 | 0.791 |
| CC(N)(Cc1ccc(O)cc1)C(=O)O (racemic) | 0.941 | 1.05 |
| COc1ccc(CCc2nc3cc(-c4c(C)noc4C)ccc3n2C[C@H](C)N2CCOCC2)cc1Cl | 0.606 | 0.487 |
| O=C(O)c1cc2cccc([N+](=O)[O-])c2[nH]1 | 1.04 | 0.985 |
| Nc1nc(=O)c2c([nH]1)NC[C@H](CNc1ccc(C(=O)N[C@@H](CCC(=O)O)C(=O)O)cc1)N2C=O | 0.779 | 0.952 |
| COc1cc(/C=C(\C#N)C(=O)c2ccc(O)c(O)c2)cc(I)c1O | 0.959 | 0.967 |
| CCNC(=O)c1noc(-c2cc(C(C)C)c(O)cc2O)c1-c1ccc(CN2CCOCC2)cc1 | 0.047 | 0.021 |
| COc1cccc(N(C)C(=S)Oc2ccc3c(c2)CCCC3)n1 | 0.614 | 0.655 |
| CNCc1ccc(-c2[nH]c3cc(F)cc4c3c2CCNC4=O)cc1 | 1.03 | 1.03 |

| Compound | PER2::LUC luminescence (time after treatment 24 h) | PER2::LUC luminescence (time after treatment 30 h) |
| --- | --- | --- |
| NCCc1cc[nH]n1 | 1.05 | 1.09 |
| CCCNC(C)C(=O)Nc1c(C)csc1C(=O)OC (stereo unspecified) | 1 | 0.951 |
| O=c1cc(-c2ccc(O)cc2)oc2cc(O[C@@H]3O[C@H](CO)[C@@H](O)[C@H](O)[C@H]3O)cc(O)c12 | 1.22 | 1.43 |
| Cc1c(NC(C)C)c(=O)n(-c2ccccc2)n1C | 0.851 | 0.837 |
| Cc1cnc(-c2cnc(NCCNc3ccc(C#N)cn3)nc2-c2ccc(Cl)cc2Cl)[nH]1 | 1.56 | 1.06 |
| N[C@@]1(C(=O)O)CN[C@@H](C(=O)O)C1 | 0.997 | 0.949 |
| CN(C)CCN(Cc1ccc(Cl)cc1)c1ccccn1 | 0.304 | 0.599 |
| C=C1/C(=C\C=C2/CCC[C@]3(C)[C@@H]([C@H](C)CC[C@@H](O)C(C)(C)O)CC[C@@H]23)C[C@@H](O)C[C@@H]1O | 0.999 | 0.835 |
| NS(=O)(=O)Cc1noc2ccccc12 | 0.993 | 0.829 |
| COc1ccc2c(c1)C(=O)N(CCc1ccc(S(=O)(=O)NC(=O)NC3CCCCC3)cc1)C(=O)C2(C)C | 0.931 | 1.05 |
| C=CCc1ccc(O)c(-c2cc(CC=C)ccc2O)c1 | 1.07 | 0.949 |
| CCCCCCCCCCOc1cc2c(O)c(C(=O)OCC)cnc2cc1OCC | 0.758 | 1.1 |
| COC(=O)[C@@H](N)CS | 0.59 | 0.849 |
| Cc1cn([C@H]2C[C@H](N=[N+]=[N-])[C@@H](CO)O2)c(=O)[nH]c1=O | 1 and 0.851 | 0.854 and 0.886 |
| COc1ccc([C@@H]2Sc3ccccc3N(CCN(C)C)C(=O)[C@@H]2OC(C)=O)cc1 | 0.861 | 0.812 |
| C[C@H](NC[C@H](O)CP(=O)(O)Cc1ccccc1)c1ccc(Cl)c(Cl)c1 | 1.09 | 1 |
| CC(=O)c1cc([N+](=O)[O-])c(Sc2ccc(F)cc2F)s1 | 0.964 | 0.921 |
| NCCC(O)(P(=O)(O)O)P(=O)(O)O | 1.08 | 1.05 |
| N[C@@H](Cc1c[nH]cn1)C(=O)O | 1.11 | 1.03 |
| Cc1ccc2nc(NCCN)c3ncc(C)n3c2c1 | 0.083 | 0.227 |
| Cc1c(NC(=O)OC[C@@H]2COCCN2)cn2ncnc(Nc3ccc4c(cnn4Cc4cccc(F)c4)c3)c12 | 0.864 | 0.784 |
| CN1C(=O)C[C@@H](C(=O)N[C@@H](Cc2c[nH]cn2)C(=O)N2CCC[C@H]2C(N)=O)NC1=O | 1.13 | 0.994 |

| Compound | PER2::LUC luminescence (time after treatment 24 h) | PER2::LUC luminescence (time after treatment 30 h) |
| --- | --- | --- |
| CC(C[N+](C)(C)C)OC(N)=O (stereo unspecified) | 1.02 | 1.04 |
| Nn1nnc2ccccc21 | 1.04 | 1.06 |
| CN(C)CCCC1(c2ccc(F)cc2)OCc2cc(C#N)ccc21 (stereo unspecified) | 0.733 | 0.753 |
| CN(C)[C@@H](CCOc1cccc2ccccc12)c1ccccc1 | 0.775 | 0.788 |
| COC[C@@H](c1ccc(C(F)(F)F)cc1)N1CCN(C2(C)CCN(C(=O)c3c(C)ncnc3C)CC2)C[C@@H]1C | 1.02 | 0.868 |
| Cc1onc(-c2ccccc2)c1C(=O)N[C@@H]1C(=O)N2[C@@H]1SC(C)(C)[C@@H]2C(=O)O | 0.917 | 1.16 |
| CC(C)c1noc(N2CCC(COc3ccc(-c4ccc(S(C)(=O)=O)cc4)nc3)CC2)n1 | 1.05 | 1.12 |
| O=CN1CC/C(=C/c2ccc3c(c2)OCO3)C1=O | 1.18 | 1.26 |
| COc1ccccc1CNCCCCCCNCCCCCCCCNCCCCCCNCc1ccccc1OC | 0.757 | 0.981 |
| OCCOCCN1CCN(C(c2ccccc2)c2ccccc2)CC1 | 0.939 | 0.9 |
| CC[C@H](Nc1ncnc2[nH]cnc12)c1nc2cccc(F)c2c(=O)n1-c1ccccc1 | 0.89 | 0.786 |
| CCC(=O)NCC[C@@H]1CCc2ccc3c(c21)CCO3 | 0.981 | 0.994 |
| COC1=CC(=O)C[C@@H](C)[C@]12Oc1c(Cl)c(OC)cc(OC)c1C2=O | 1.05 and 0.887 | 0.893 and 0.895 |
| CC[C@H](/C=C/[C@@H](C)[C@H]1CC[C@H]2[C@@H]3CCC4=CC(=O)CC[C@]4(C)[C@H]3CC[C@]12C)C(C)C | 0.932 | 0.934 |
| CC(C)(C)c1cc(/C=C(\C#N)C(N)=S)cc(C(C)(C)C)c1O | 0.935 | 0.893 |
| COc1c2c(cc3occ(-c4ccc5c(c4)OCO5)c(=O)c13)OC(C)(C)C=C2 | 0.833 | 0.876 |
| COc1ccc(-c2coc3cc(O)cc(O)c3c2=O)cc1 | 1.83 | 1.97 |
| O=C(O)/C=C/c1ccc(-c2ccc(O)c(C34CC5CC(CC(C5)C3)C4)c2)cc1 | 0.735 | 0.721 |
| NS(=O)(=O)NCCNc1nonc1/C(=N/O)Nc1ccc(F)c(Br)c1 | 1.01 | 1.07 |
| O[C@@H](COc1cccc2ncccc12)CN1CCN(C2c3ccccc3[C@@H]3[C@H](c4ccccc42)C3(F)F)CC1 (stereo partly specified) | 0.96 | 0.7 |
| CNC(=O)c1c(I)c(NC(C)=O)c(I)c(C(=O)O)c1I | 0.967 | 0.924 |
| O=S(=O)(NCCNC/C=C/c1ccc(Br)cc1)c1cccc2cnccc12 | 0.641 | 0.523 |

| Compound | PER2::LUC luminescence (time after treatment 24 h) | PER2::LUC luminescence (time after treatment 30 h) |
| --- | --- | --- |
| N=C1S/C(=C\c2ccc(-c3ccc4c(c3)C(=O)NC4=O)o2)C(=O)N1c1ccc(Br)cc1 | 0.976 | 0.882 |
| OCC(O)CN1CCN(c2ccccc2)CC1 (stereo unspecified) | 0.992 | 1.05 |
| CC(C)=CC[C@@H](OC(=O)C=C(C)C)C1=CC(=O)c2c(O)ccc(O)c2C1=O | 1.03 | 1.03 |
| CC(C)CCNc1ncccc1C(=O)N1CCN(Cc2ccccc2)CC1 | 1.09 | 1.07 |
| O=C(Nc1ccc(Cl)cc1)c1cc(Br)ccc1O | 0.822 | 0.728 |
| COc1ccccc1N1CCN(CCN2C(=O)CC3(CCCC3)CC2=O)CC1 | 1.01 | 0.951 |
| CN1Cc2sccc2C(c2ccc(O)c(O)c2)C1 (stereo unspecified) | 1.09 | 0.974 |
| COc1cc2c(cc1OC)C(=O)OC2 | 0.85 | 0.816 |
| Fc1ccc(-n2cc(CCCCN3CCC4(CC3)OCc3ccccc34)c3ccccc32)cc1 | 0.561 and 0.532 | 0.617 and 0.573 |
| CN(C)CCC(c1ccc(Cl)cc1)c1ccccn1 (stereo unspecified) | 0.912 and 0.863 | 0.974 and 0.869 |
| C[C@H](O)C(=O)C1=Nc2c(nc(N)[nH]c2=O)NC1 | 1.14 | 1.11 |
| COc1cc(N)c(Cl)cc1C(=O)NC1CCN(CCCOc2ccc(F)cc2)CC1OC (stereo unspecified) | 0.817 | 0.668 |
| COc1ccc2cc1Oc1ccc(cc1)C[C@H]1c3c(cc4c(c3Oc3cc5c(cc3OC)CCN(C)[C@@H]5C2)OCO4)CCN1C | 0.267 | 0.416 |
| CC(O)CC(C)(C)O (stereo unspecified) | 1.2 and 0.943 | 0.89 and 0.9 |
| CC(C)(C)NC(=O)[C@@H]1CN(Cc2cccnc2)CCN1C[C@@H](O)C[C@@H](Cc1ccccc1)C(=O)N[C@H]1c2ccccc2C[C@H]1O | 0.907 | 0.997 |
| O=C(O)c1ccccc1Nc1cccc(OCc2ccc3ccccc3n2)c1 | 0.958 | 0.844 |
| CC(=O)NCCc1c(Cc2ccccc2)[nH]c2ccccc12 | 0.891 | 0.965 |
| O=C(O[C@@H]1C[C@@H]2C[C@H]3C[C@H](C1)N2CC3=O)c1c[nH]c2ccccc12 | 0.947 | 0.901 |
| COc1ccc(COc2cc3oc(=O)c4cc(C(C)O)ccc4c3cc2OC)cc1 (stereo unspecified) | 1.05 | 0.907 |
| Cn1c(=O)c2[nH]c(Br)nc2n(C)c1=O | 0.903 | 0.929 |
| NC(=O)[C@@H]1CCCN1C(=O)[C@H](Cc1cnc[nH]1)NC(=O)[C@@H]1CCC(=O)N1 | 1.13 | 1.22 |
| NC1=N[C@@]2(c3cc(NC(=O)c4ccc(F)cn4)ccc3F)COC[C@H]2CS1 | 0.905 | 0.926 |
